According to ChEMBL document CHEMBL4888484, “Replenishing the malaria drug discovery pipeline: Screening and hit evaluation of the MMV Hit Generation Library 1 (HGL1) against asexual blood stage Plasmodium falciparum ,using a nano luciferase reporter read-out” (2022):
The campaign covered roughly 150,000 compounds. About 540 (0.36%) showed an effect of 50% or more. This is one part of the list.

Each molecule was assayed on Plasmodium falciparum (assay: Primary screen in NF54 nanoGlo assay, in single point, at 2uM, 72h; a lower Z score goes with more inhibition). Conditions: timepoint 72 hour.
Type: functional, Erythrocyte
In the case of OCCNc1ncncc1-c1nc(C2CCCCC2)no1, the “% Inhibition” value is reported as -14% and the Z score is reported as 1.59.
For O=C(NCCN1CCCCC1)c1csc(CN(CCC(c2ccccc2)c2ccccc2)Cc2ccc(F)cc2)n1, the “% Inhibition” value was -5% and the Z score was 0.7.
With CCC(CO)NC(=O)c1nc2ccc(NC(CC)CO)nc2s1 (stereo unspecified) the “% Inhibition” value was -13% and the Z score was 2.33.
Cc1cc(C(=O)N2CCC[C@H](c3nccn3CC(N)=O)C2)c2ccccc2n1 was tested, and the “% Inhibition” value was -6% and the Z score was 0.79.
In the case of CN1CCCN(C(=O)C2CCCCC2)c2nc3ccccc3nc21, the “% Inhibition” value is reported as -5% and the Z score is reported as 0.93.
With COc1ccc(NC(=O)[C@H]2C[C@H](Cc3ccc(O)cc3)N[C@]23C(=O)Nc2c3ccc(C)c2C)cc1 the “% Inhibition” value was -2% and the Z score was 0.21.
For COc1cc(-c2ccccc2)ccc1CNC[C@]1(O)CCOC1, the “% Inhibition” value was -3% and the Z score was 0.36.
Cc1cc(C(=O)NC(C)C)ccc1NCCCC(C)(C)C#N was tested, and the “% Inhibition” value was 1% and the Z score was -0.18.
O=C(c1ccncc1)N1C[C@H]2CC[C@@H](C1)N(Cc1ccc3occc3c1)C2 was tested, and the “% Inhibition” value was -11% and the Z score was 2.03.
CC(OCC1CCCCO1)c1nc(-c2cccc(-n3cccn3)n2)no1 (stereo unspecified) was tested, and the “% Inhibition” value was -8% and the Z score was 1.18.
With Cc1ocnc1C(=O)N1CCC2(CCC(=O)N(CCc3c[nH]cn3)C2)CC1 the “% Inhibition” value was -10% and the Z score was 1.23.
In the case of Nc1nc2cc(C(=O)N3CCO[C@H](c4ccccc4)C3)ccc2s1, the “% Inhibition” value is reported as 0% and the Z score is reported as -0.01.
For O=C(c1ccc(F)cc1)[C@H]1CCCN(C(=O)CCc2ccncc2)C1, the “% Inhibition” value was -6% and the Z score was 0.89.
With O=S(=O)(NC[C@H]1O[C@@H](CO)[C@@H](O)[C@H]1N1CCOCC1)c1cccs1 the “% Inhibition” value was -10% and the Z score was 1.49.
Cc1nnsc1C(=O)N[C@H]1CC[C@H](Oc2cnccn2)CC1 was tested, and the “% Inhibition” value was -9% and the Z score was 1.03.
With CN(C[C@H]1CCCOC1)S(=O)(=O)c1ccc(Br)cc1 the “% Inhibition” value was 4% and the Z score was -0.86.
CC[C@H](NCC(=O)N1CCCC1)C(=O)OC was tested, and the “% Inhibition” value was -3% and the Z score was 0.44.
For COc1cccc(CN2CCN3C(=O)c4ccccc4OCC[C@@H]4CC[C@@H](NC(=O)C5CCOCC5)[C@@H](CNC(=O)[C@@H]3C2)O4)c1, the “% Inhibition” value was -8% and the Z score was 1.24.
For CCOc1cccc(-n2cc(-c3ccccc3)nc2NC(=O)CN(Cc2ccco2)C(=O)c2ccc(Cl)cc2Cl)c1, the “% Inhibition” value was -4% and the Z score was 0.51.
In the case of O=C(c1ccc2nc(-c3ccccc3)cn2c1)N1CCNCC1, the “% Inhibition” value is reported as -9% and the Z score is reported as 1.73.
In the case of CCNC1CC(C)S(=O)(=O)c2sc(S(N)(=O)=O)cc21 (stereo unspecified), the “% Inhibition” value is reported as 1% and the Z score is reported as -0.11.
In the case of COCCCNC(=O)Cn1nc(-n2c(C)ccc2C)c2c(C)cc(C)nc21, the “% Inhibition” value is reported as -9% and the Z score is reported as 0.89.
In the case of CCC[C@]1(c2ccccc2)NC(=O)N(Cc2cc(C)on2)C1=O, the “% Inhibition” value is reported as -3% and the Z score is reported as 0.38.
O=C(NC(CO)CO)c1cc(COc2ccc3ncccc3c2)on1 was tested, and the “% Inhibition” value was -9% and the Z score was 1.78.
With O=C(NCc1nc(C2CCCCC2)cs1)c1ccc(S(=O)(=O)N2CCOCC2)cc1 the “% Inhibition” value was -9% and the Z score was 1.47.
With COc1ccccc1N1CCN(C(=O)CN2C(C)CCC2C)CC1 (stereo unspecified) the “% Inhibition” value was 1% and the Z score was -0.15.
With CC1CC(NC(=O)NC(CCO)C(C)(C)C)CC(C)O1 (stereo unspecified) the “% Inhibition” value was 5% and the Z score was -0.93.
In the case of Cc1noc(CCCNC(=O)COc2cc(Cl)cc(Cl)c2)n1, the “% Inhibition” value is reported as -8% and the Z score is reported as 1.58.
In the case of CCOC(=O)c1[nH]nc(NC(=O)C[C@H]2CCCO2)c1C, the “% Inhibition” value is reported as -13% and the Z score is reported as 1.83.
For COc1ccc(C)cc1NC(=O)CN1C(=O)[C@H]2CCCC2=Nc2ccccc21, the “% Inhibition” value was -5% and the Z score was 0.56.
In the case of COc1cc(=O)n(-c2ccccc2)cc1C(=O)N1CC(Nc2ncccn2)C1, the “% Inhibition” value is reported as -6% and the Z score is reported as 0.93.
In the case of O=C(Cn1cn[nH]c1=O)NC1CCC2(CCOCC2)CC1, the “% Inhibition” value is reported as -5% and the Z score is reported as 0.47.
In the case of O=C(N[C@@H]1C[C@@H]2CC(C(=O)O)C[C@@H]21)c1cc2c(o1)CCCC2 (stereo partly specified), the “% Inhibition” value is reported as -2% and the Z score is reported as 0.31.
For O=C(CCCC1CCCCC1)Nc1cccc(C(=O)N2CCC(O)CC2)c1, the “% Inhibition” value was -5% and the Z score was 0.62.
In the case of Cc1ccc(CCN(C[C@H]2CCCO2)C(=O)c2cc(C)no2)cc1, the “% Inhibition” value is reported as -15% and the Z score is reported as 1.32.
In the case of CC1(C)CN(C(=O)NC2CC2)C2CCCC21 (stereo unspecified), the “% Inhibition” value is reported as 20% and the Z score is reported as -2.56.
Cc1cc(C)n(CC2(CNC(=O)C[C@@H](c3ccccc3)c3ccccn3)CC2)n1 was tested, and the “% Inhibition” value was -4% and the Z score was 0.73.
Cc1nnc(CN(Cc2cccnc2)Cc2ccco2)o1 was tested, and the “% Inhibition” value was -3% and the Z score was 0.42.
For c1cc(-c2cc([C@H]3CCN(Cc4ccc5c(c4)CCO5)C3)ccn2)ccn1, the “% Inhibition” value was 0% and the Z score was 0.05.
Cn1ccnc1[C@@H]1C[C@H](NC(=O)c2ccccc2)C[C@H](Cc2ccccc2)O1 was tested, and the “% Inhibition” value was -12% and the Z score was 1.81.
CCc1noc(CN(C)C2CCCCC2S(C)(=O)=O)n1 (stereo unspecified) was tested, and the “% Inhibition” value was -7% and the Z score was 0.75.
For O=C(N[C@H]1[C@H](O)[C@H](O)C[C@@H]1c1ccncc1)c1ccccc1, the “% Inhibition” value was -1% and the Z score was 0.18.
With CN1C(=O)c2ccccc2O[C@H]2CN(C(=O)c3ccccc3F)C[C@H]21 the “% Inhibition” value was -13% and the Z score was 2.42.
COC(=O)c1c(C)[nH]c(-c2ccc3c(c2)OCO3)c1O was tested, and the “% Inhibition” value was -2% and the Z score was 0.22.
For COCCNC(=O)c1nn(CCC(C)C)c2c1CN(C(=O)c1cn3ccccc3n1)CC2, the “% Inhibition” value was -2% and the Z score was 0.21.
In the case of O=C1CN(C2CCCC2)C(=O)N1Cc1ccc(Cl)cc1Cl, the “% Inhibition” value is reported as -4% and the Z score is reported as 0.57.
In the case of CO[C@@H](CS(=O)(=O)Nc1ccc(O)cc1C(N)=O)C1CCCC1, the “% Inhibition” value is reported as -2% and the Z score is reported as 0.27.
In the case of O=C(NCc1nccs1)N1CCC[C@@]2(C=Cc3ccccc3O2)C1, the “% Inhibition” value is reported as -5% and the Z score is reported as 0.88.
With CNC(=O)c1ccc(-n2cnc3cc(C)c(C)cc32)o1 the “% Inhibition” value was 0% and the Z score was 0.
With O=C(Nc1ccc2c(c1)C(O)=Nc1cccnc1O2)c1ccccc1 the “% Inhibition” value was -5% and the Z score was 0.91.
In the case of COc1ccc(-c2nc3cc(C)ccc3cc2CN2CCNC(=O)[C@@H]2C)cc1, the “% Inhibition” value is reported as -12% and the Z score is reported as 1.47.
O[C@H]1CCCN(c2ccnc(-c3cccc4ccnn34)n2)C1 was tested, and the “% Inhibition” value was 11% and the Z score was -1.44.
With COc1cccc(Cn2c(Cc3c[nH]c4ccccc34)n[nH]c2=O)c1 the “% Inhibition” value was -17% and the Z score was 2.7.
CCNC(=O)N1CC=C(C(=O)Nc2cccc(F)c2)CC1 was tested, and the “% Inhibition” value was -18% and the Z score was 2.72.
O=C1NCCCC[C@@H]1Nc1ncnc2c(Br)cccc12 was tested, and the “% Inhibition” value was -8% and the Z score was 1.59.
O=C(c1ccc2c(c1)OCCO2)N1CCC(n2cc(CCO)nn2)CC1 was tested, and the “% Inhibition” value was -13% and the Z score was 2.21.
For CCn1c(C)nnc1CN1CCn2c(nnc2C(C)(C)C)C1, the “% Inhibition” value was 5% and the Z score was -0.72.
For CNC(=O)[C@@H](NC(=O)c1cccc(C(F)(F)F)c1)C(C)(C)C, the “% Inhibition” value was 4% and the Z score was -0.57.
With O=S1(=O)N=C(NCC2(N3CCOCC3)CCCCC2)c2ccccc21 the “% Inhibition” value was -1% and the Z score was 0.12.
In the case of CCS(=O)(=O)C1CN(Cc2ccccc2OC(C)C)C1, the “% Inhibition” value is reported as 1% and the Z score is reported as -0.22.
COc1cc(NC(=O)CCc2ccccc2)nc(OC)n1 was tested, and the “% Inhibition” value was -12% and the Z score was 1.56.
For Cc1nc2c(NC(=O)CN(C)S(C)(=O)=O)cccc2o1, the “% Inhibition” value was -22% and the Z score was 2.33.
With O=S(=O)(Nc1ccccc1)c1cnc2ccccc2c1 the “% Inhibition” value was 11% and the Z score was -1.48.
In the case of CCN(CC)C(=O)[C@@H]1CCCN1Cc1cnc2c(C)cccn12, the “% Inhibition” value is reported as -3% and the Z score is reported as 0.35.
With Cn1ncc(Cl)c1C(=O)N1CC[C@@]2(CCCN(CC3CC3)C2=O)C1 the “% Inhibition” value was 2% and the Z score was -0.34.
For C#CCN(C)C(=O)CCc1ccc(Cl)s1, the “% Inhibition” value was 0% and the Z score was 0.07.
For CC(=O)N1CCC(C(=O)N[C@@H](CC(C)C)c2ncnn2C)CC1, the “% Inhibition” value was -20% and the Z score was 2.54.
With CCCc1nn(-c2cccc(F)c2)c(N2CCN(CC)CC2)c1CN(CCC)Cc1ccccc1 the “% Inhibition” value was -27% and the Z score was 2.37.
In the case of CC(=O)c1ccc(N2CCN(C(=O)CCN3C(=O)c4ccccc4C3=O)CC2)cc1, the “% Inhibition” value is reported as -2% and the Z score is reported as 0.28.
For COc1cc(-c2cc(C(=O)N3CCN(C(c4ccccc4)c4ccccc4)CC3)c3ccccc3n2)cc(OC)c1OC, the “% Inhibition” value was 15% and the Z score was -1.55.
With CC(=O)Nc1ccc(-c2cn(C)c[n+]2C)cc1 the “% Inhibition” value was -42% and the Z score was 4.97.
In the case of CC(C)c1noc(CN(C)C(=O)CCc2cccc(Cl)c2)n1, the “% Inhibition” value is reported as -22% and the Z score is reported as 1.99.
In the case of Cc1ccc(C(=O)O/N=C(\Nc2cc(C)ccc2C)c2nonc2N)cc1, the “% Inhibition” value is reported as -1% and the Z score is reported as 0.24.
CC(=O)c1c(C)n(-c2ccccc2)c2cc(Br)c(OCc3nnc(C)o3)cc12 was tested, and the “% Inhibition” value was -11% and the Z score was 1.94.
COc1ccccc1CCNC(=O)Nc1c(-c2ccccc2)nn(-c2ccc(C(F)(F)F)cc2)c1N was tested, and the “% Inhibition” value was -13% and the Z score was 1.37.
In the case of Cc1ccc(CN(CCO)Cc2cc(-c3ccccc3)on2)o1, the “% Inhibition” value is reported as -14% and the Z score is reported as 1.58.
COc1ccc(-c2cc(C)no2)cc1S(=O)(=O)NCCN(Cc1ccco1)C1CCCC1 was tested, and the “% Inhibition” value was -19% and the Z score was 2.49.
With Cc1cc(OCc2nnc(/C=C/c3ccccc3)o2)ccc1Br the “% Inhibition” value was -8% and the Z score was 1.57.
For CNC(=O)Cc1nc(CNC2CCCC2c2ccccc2)cs1 (stereo unspecified), the “% Inhibition” value was -12% and the Z score was 1.3.
In the case of CCN(CC)c1onc(-c2ccccc2)c1CN(Cc1ccccc1)C(=O)C(C)C, the “% Inhibition” value is reported as 5% and the Z score is reported as -0.64.
With CCCCc1nc(CN2C[C@@H]3CC[C@H]2CN(S(=O)(=O)N(C)C)C3)c[nH]1 the “% Inhibition” value was 1% and the Z score was -0.19.
With Nc1nc(CCC(=O)N2CCC[C@@H]2CO)cs1 the “% Inhibition” value was -7% and the Z score was 0.66.
In the case of Cc1ccc(NC(=O)Cc2csc(-c3cccnc3)n2)cc1, the “% Inhibition” value is reported as -9% and the Z score is reported as 1.5.
